Experimental data as given in paper PMC6919601, “Identification of Plasmodium dipeptidyl aminopeptidase allosteric inhibitors by high throughput screening” (PLoS ONE, 2019).
The whole screen tested about 110,000 compounds, of which about 230 (0.21%) showed an effect of 50% or more. The list shows a part of the results.

Biological target: DPAP1 (Plasmodium falciparum, UniProt Q8IIJ9)
Assay: primary screen, percent inhibition; read by cleavage of a fluorogenic dipeptide substrate; higher = more effect of the substance
Parameters: species or system P. falciparum D10 trophozoite lysates; single well
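Note: 30 min substrate incubation versus DMSO and 10 µM JCP410 controls.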

DPAP1, sequence (Q8IIJ9 whole entry, looked up): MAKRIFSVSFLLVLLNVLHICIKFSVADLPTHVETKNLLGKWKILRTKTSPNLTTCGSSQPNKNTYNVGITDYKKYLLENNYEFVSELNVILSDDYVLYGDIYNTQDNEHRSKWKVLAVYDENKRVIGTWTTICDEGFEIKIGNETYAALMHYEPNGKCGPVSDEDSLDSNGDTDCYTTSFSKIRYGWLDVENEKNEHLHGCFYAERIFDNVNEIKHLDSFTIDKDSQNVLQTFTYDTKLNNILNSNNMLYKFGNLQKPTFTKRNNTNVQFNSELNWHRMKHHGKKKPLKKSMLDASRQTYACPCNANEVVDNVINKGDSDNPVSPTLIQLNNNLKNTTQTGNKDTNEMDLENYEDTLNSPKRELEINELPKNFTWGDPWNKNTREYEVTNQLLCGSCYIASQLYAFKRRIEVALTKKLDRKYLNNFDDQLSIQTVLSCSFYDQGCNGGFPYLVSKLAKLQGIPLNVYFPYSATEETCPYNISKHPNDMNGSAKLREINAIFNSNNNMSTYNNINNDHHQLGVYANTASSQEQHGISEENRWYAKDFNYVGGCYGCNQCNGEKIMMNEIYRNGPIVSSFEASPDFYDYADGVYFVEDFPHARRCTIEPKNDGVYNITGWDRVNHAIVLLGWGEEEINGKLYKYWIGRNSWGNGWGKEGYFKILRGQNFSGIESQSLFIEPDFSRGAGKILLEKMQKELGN

Row | SMILES | % Inhibition @ 10 uM
1 | CC(=O)OC(C)CC#CCN1CCCC1 (stereo not drawn) | 3.48%
2 | O=C(Nc1ccc(Oc2ccc(Cl)cc2)cc1)C1CCCN1S(=O)(=O)c1ccccc1 (stereo not drawn) | -1.79%
3 | COc1ccccc1OCCCCc1c(C)n[nH]c1C | -0.833%
4 | O=C(NC(c1ccccc1)c1ccccc1)c1nnc(O)c2ccccc12 | -2.63%
5 | CC(C)CC(NC(=O)c1cccc(NC(=O)N2CCC(N(C)C)CC2)c1)C(=O)NCC#N (stereo not drawn) | -2.35%
6 | O=C(O)CN(Cc1ccccc1)Cc1ccccc1 | -2.66%
7 | COc1ccc(C)cc1N(CC(=O)N1CCCC1)S(C)(=O)=O | -10%
8 | CC(C)(C)c1ccccc1OCC(O)CN1CCN(Cc2ccc3c(c2)OCO3)CC1 (stereo not drawn) | -1.26%
9 | COc1ccc(/C=C2\N=C(SC)NC2=O)cc1 | -0.0508%
10 | Cc1ccc(C(c2c(O)nc(O)nc2O)N2CCCC2)cc1 (stereo not drawn) | 6.13%
11 | CCCCc1ccc(C(=O)NC(Cc2ccccc2)C(=O)O)cc1 (stereo not drawn) | -0.941%
12 | Cc1ccc(OCCn2c(SCCO)nc3c(N)ncnc32)cc1 | -7.58%
13 | CCOc1ccc(N(CC(=O)NCc2ccccc2Cl)S(C)(=O)=O)cc1 | -3.29%
14 | Clc1ccccc1Cn1nnc(-c2cccs2)n1 | -3.34%
15 | Cc1ccccc1Cn1c(C)c(CNCCc2ccccc2Cl)c(C(=O)O)c1C | 11.5%
16 | CC(=O)N(CN1C(=O)C2CCCCC2C1=O)c1ccccc1 (stereo not drawn) | 1.03%
17 | Cc1nnc(N2CCN(C(=O)NCc3ccco3)CC2)c2nn(-c3ccccc3)c(C)c12 | 1.11%
18 | CC(=O)c1c(C)n(-c2ccccc2C)c2ccc(O)cc12 | 5.16%
19 | N#Cc1ccccc1Cn1c(=O)n(CC(=O)NCc2ccccc2Cl)c(=O)c2sccc21 | -7.85%
20 | COc1ccc(CNS(=O)(=O)c2cc(Br)cnc2N)cc1 | -2.84%
21 | CC(C)(C)C1CCc2c(sc(NC(=O)c3ccc(Br)o3)c2C#N)C1 (stereo not drawn) | -6.7%
22 | Cn1c(NC(=O)c2ccc(Cl)cc2)nc2ccccc21 | 0.512%
23 | COCCNC(=O)c1cc(-c2ccc(Br)cc2)[nH]n1 | -2.37%
24 | CS(=O)(=O)N1N=C(c2ccc(Br)cc2)CC1c1cccs1 (stereo not drawn) | -3.1%
25 | COc1cc(/C=C/C(=O)Nc2nc3c(s2)C(=O)CC(C)(C)C3)cc(OC)c1OC | 5.17%
26 | COc1ccc(OCC(=O)Nc2nc(-c3ccc(F)cc3)cs2)cc1 | -3.04%

Row | SMILES | % Inhibition @ 10 uM
27 | C=CCN1C(=O)c2ccccc2C1C(=O)NCc1cccnc1 (stereo not drawn) | -1.34%
28 | COc1ccc(OC)c(CN2CCN(c3ccccc3OC)CC2)c1 | 4.81%
29 | O=C(Nc1ccccc1)Nc1cccc2cccnc12 | 2.33%
30 | Cc1c(C(=O)NC(C)CCc2ccccc2)oc2c1C(=O)CCC2 (stereo not drawn) | -0.12%
31 | COc1ccc(S(=O)(=O)N2CCCCC2)cc1-n1cnnn1 | 1.32%
32 | COc1ccc(OC)c(C(=O)c2oc3ccc(Br)cc3c2N)c1 | 8.89%
33 | Cc1cc(N2C(=O)C3C4c5ccccc5C(c5ccccc54)C3C2=O)no1 (stereo not drawn) | 0.52%
34 | CCc1ccc(C(=O)CSc2nnnn2-c2ccccc2)cc1 | -2.39%
35 | Cc1ccc(-c2nnc(C)nc2-c2cn(C)c3ccccc23)cc1 | 1.32%
36 | CCc1ccc(N2CC(C(=O)Nc3ccccc3Br)CC2=O)cc1 (stereo not drawn) | 28.3%
37 | Cc1cc(/C=C2\SC(N)=NC2=O)c(C)n1-c1ccc(Cl)c(Cl)c1 | -9.75%
38 | CCOC(=O)C1(C#N)C(N)=C(C#N)C(c2ccccc2)=CC1c1ccccc1 (stereo not drawn) | -6.76%
39 | CC(=O)Nc1ccc(S(=O)(=O)Nc2ccccc2Cl)cc1 | -2.55%
40 | CCOc1ccc(NC(=O)CS(=O)(=O)Cc2ccccc2)cc1 | 0.658%
41 | COc1ccc(C2C(C(C)=O)=C(C)N=c3s/c(=C\c4ccc5c(c4)OCO5)c(=O)n32)c(OC)c1 (stereo not drawn) | 4.67%
42 | Cc1cc(NS(=O)(=O)c2ccc(NC(=O)C3CC3)cc2)no1 | 4.05%
43 | O=C(COc1ccc(Cl)cc1Cl)NCCCN1CCOCC1 | -2.97%
44 | CN1CCN(CCNC(=O)c2ccc(CS(=O)c3ccc(Br)cc3)o2)CC1 (stereo not drawn) | -0.716%
45 | CCc1nn(-c2cc(Oc3ccccc3C)ncn2)c(N)c1C(N)=O | 0.145%
46 | CCCN(CCC)C(=O)CC(c1ccccc1)C1CCOC(C)(C)C1 (stereo not drawn) | 1.62%
47 | COC(=O)c1ccc(CC(=O)c2c(O)cc(O)cc2O)o1 | -8.12%
48 | CN(C)CCn1c2ccccc2n2cc(-c3ccc(F)cc3)nc12 | -4.82%
49 | Cc1ccc(-n2ncc3c(NCCN4CCOCC4)ncnc32)cc1 | -1.27%
50 | O=C(C1CC2CCC1C2)N1CCN(C(c2ccccc2)c2ccccc2)CC1 (stereo not drawn) | -0.233%
51 | Cc1ccc(CS(=O)Cc2ccc(C(=O)NCCc3ccccc3)o2)cc1 (stereo not drawn) | 1.22%
